Out of some 310,000 compounds screened, about 14,000 (4.5%) showed an effect of 50% or more. The effect is printed as a negative number. The list shows a part of the results.
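Further: peak tail current of the secondary pulse compared with the same well before compound.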

human ether-à-go-go-related gene (hERG) potassium channel, sequence (Q12809 whole entry, looked up): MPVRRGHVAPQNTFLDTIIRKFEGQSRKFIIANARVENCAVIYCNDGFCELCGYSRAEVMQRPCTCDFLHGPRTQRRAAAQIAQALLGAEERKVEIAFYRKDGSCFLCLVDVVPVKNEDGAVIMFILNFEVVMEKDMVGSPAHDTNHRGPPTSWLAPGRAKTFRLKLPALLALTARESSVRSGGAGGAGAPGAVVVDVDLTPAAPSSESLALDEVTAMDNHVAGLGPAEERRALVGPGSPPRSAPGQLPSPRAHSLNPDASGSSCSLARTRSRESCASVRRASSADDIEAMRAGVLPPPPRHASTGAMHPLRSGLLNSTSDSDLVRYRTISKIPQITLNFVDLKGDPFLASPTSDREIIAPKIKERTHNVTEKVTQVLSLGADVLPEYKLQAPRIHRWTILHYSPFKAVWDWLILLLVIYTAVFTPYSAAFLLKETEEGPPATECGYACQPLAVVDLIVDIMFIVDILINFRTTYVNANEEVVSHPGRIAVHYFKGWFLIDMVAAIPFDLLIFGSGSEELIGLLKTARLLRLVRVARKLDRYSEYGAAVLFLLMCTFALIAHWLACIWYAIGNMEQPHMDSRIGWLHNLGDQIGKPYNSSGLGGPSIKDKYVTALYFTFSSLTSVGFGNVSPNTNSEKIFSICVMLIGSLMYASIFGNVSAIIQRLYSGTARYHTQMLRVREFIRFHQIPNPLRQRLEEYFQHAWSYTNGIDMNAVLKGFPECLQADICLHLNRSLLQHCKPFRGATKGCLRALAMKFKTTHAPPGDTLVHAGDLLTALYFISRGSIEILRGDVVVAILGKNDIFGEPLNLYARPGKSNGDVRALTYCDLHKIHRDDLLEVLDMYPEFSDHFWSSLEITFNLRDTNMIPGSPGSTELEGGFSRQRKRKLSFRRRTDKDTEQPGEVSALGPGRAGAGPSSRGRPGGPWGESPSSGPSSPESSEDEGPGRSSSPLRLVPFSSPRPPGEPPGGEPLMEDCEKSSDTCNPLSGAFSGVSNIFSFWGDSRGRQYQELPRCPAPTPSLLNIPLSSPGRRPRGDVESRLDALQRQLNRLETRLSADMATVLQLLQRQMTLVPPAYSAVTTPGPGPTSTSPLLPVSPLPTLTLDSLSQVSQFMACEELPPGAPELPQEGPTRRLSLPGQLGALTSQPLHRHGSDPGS

The assay concerns the target human ether-à-go-go-related gene (hERG) potassium channel (human, UniProt Q12809). Nature of the assay: primary screen, population patch clamp on CHO cells stably expressing hERG.
For `COc1ccc(CC(NC(C)=O)C(=O)N2CCN(C(=O)Nc3ccc(Cl)cc3)CC2)cc1OC` (stereo not shown), the “hERG current change (%, negative = inhibition) at 10uM” value is listed as -33.8%.
Then `COc1ccc(/C=C/C(=O)OCC(=O)c2ccc3c(c2)NC(=O)CO3)c(OC)c1`, with 1.6%; and `C=CCOC(=O)C1=C(C)N=C2SCCC(=O)N2C1/C=C/c1ccccc1OC` (stereo not shown), with 0.449%.
Then `C=CCn1cc(/C=N/N2C(=O)C3C4C=CC(C4)C3C2=O)c2ccccc21` (stereo not shown), with -3.93%.
Then `O=C(O)c1cc(N2C(=O)C3CC=CCC3C2=O)ccc1NCc1cccnc1` (stereo not shown), with 15%; and `CCN(CC)S(=O)(=O)c1ccc(N=NC2=C(O)CC(C)(C)CC2=O)cc1`, with 3.89%.
With `CCCCc1ccc(NS(=O)(=O)c2c(C)n(C)c(=O)n(C)c2=O)cc1`, the “hERG current change (%, negative = inhibition) at 10uM” value is given as -3.46%.
On to `O=C(NC1CCCCC1)c1cc2nc3c(c(C(F)(F)F)n2n1)CCCC3`, for which the “hERG current change (%, negative = inhibition) at 10uM” value is -25.7%.
Then `COc1ccccc1C(=O)NC(=O)CSc1nnc(N)s1`, with -1.2%; and `CCOC(=O)C1CCN(c2ncnc3c2oc2ccc(Br)cc23)CC1`, with -9.99%.
For the compound `COc1ccccc1S(=O)(=O)Nc1cc(S(=O)(=O)N2CCCCC2)ccc1N1CCOCC1`, the “hERG current change (%, negative = inhibition) at 10uM” value is recorded as -36%.
Then `O=c1c2cnn(-c3ccccc3)c2nnn1/N=C/c1cccnc1`, with 14.2%; and `O=C(NCc1cccnc1)c1noc2c1CCCC2`, with -4.81%.
With `CC1CC1c1ccc(/C=C(\C#N)C(=O)Nc2cc(Cl)ccc2Cl)o1` (stereo not shown), the “hERG current change (%, negative = inhibition) at 10uM” value is 8.87%.
As to `CSc1cccc(NC(=O)C2CCCN(S(=O)(=O)c3cccs3)C2)c1` (stereo not shown), the “hERG current change (%, negative = inhibition) at 10uM” value was 3.76%.
Next, `O=C(NCc1cccs1)C1CCCN1S(=O)(=O)c1ccccc1F` (stereo not shown): -4.65%; `Cc1ccc(C)c2[nH]c(=O)c(CCNC(=O)c3ccco3)cc12`: 2.01%.
Next, `Oc1ccccc1C=NC(c1ccccc1)C(O)c1ccccc1` (stereo not shown): 0.467%; `CCn1cnc2sc(C(=O)Oc3cccc(C)c3)c(C)c2c1=O`: 19.9%; `Cc1nc(C(F)(F)F)ccc1C(=O)N1CCCCC1`: 13.5%.
Next, `CCOC(=O)c1cnn(-c2nc(-c3ccccc3F)cs2)c1C(F)(F)F`: 13.5%.
As to `Cc1cc(C)nc(-n2nc(C)c(Oc3ccccc3O)c2C)n1`, the “hERG current change (%, negative = inhibition) at 10uM” value is -6.25%.
Next, `CN(CCCC(=O)NCc1ccc2c(c1)OCO2)S(=O)(=O)c1ccc([N+](=O)[O-])cc1`: -68.1%.
`COc1ccc(S(=O)(=O)N2CCN(Cc3cc(OC)c(OC)c(OC)c3)CC2)cc1.O=C(O)C(=O)O`: the “hERG current change (%, negative = inhibition) at 10uM” value is on record as 15.5%.
Turning to `CCSc1nnc(-c2ccc(S(=O)(=O)N3CCOCC3)cc2)n1C`, the “hERG current change (%, negative = inhibition) at 10uM” value is on record as 13.7%.
As for `I.OCCNC1=NCCN1`, the “hERG current change (%, negative = inhibition) at 10uM” value came out at 21.5%.
Next, `Cc1ccccc1-c1nnn(Cc2ccc(F)cc2Cl)n1`: 10.6%.
Then `O=C(Cn1cc(/C=N/NC(=O)c2ccccc2Br)c2ccccc21)Nc1ccc(F)cc1`, with 13.9%; and `Cc1ccc2c(c1)C(O)(CC(=O)/C=C/C=C/c1ccccc1)C(=O)N2` (stereo not shown), with 4.35%; and `O=C(NCc1ccc(Cl)cc1)C1CC(O)CN1S(=O)(=O)c1ccc(Cl)cc1` (stereo not shown), with 3.19%.
Then `CN(c1cnn(-c2ccccc2)c(=O)c1Cl)n1cccc1`, with -9.65%; and `COC(=O)c1cc(Br)ccc1NC(=O)Nc1ccccc1`, with -3.67%; and `O=C(Nc1cccc(S(=O)(=O)N2CCCCC2)c1)c1ccc2ccccc2n1`, with 2.67%.
With `O=C(CCNS(=O)(=O)c1ccc(Br)s1)NC1CCCC1`, the “hERG current change (%, negative = inhibition) at 10uM” value is -15.1%.
Then `CCOc1ccc(CNC(=O)C2CCCN(S(=O)(=O)N3CC(C)CC(C)C3)C2)cc1OC` (stereo not shown), with 9.47%; and `CCOC(=O)C1=C(C)NC(C)=C(C(=O)OCC)C1C(=O)OCC(=O)c1ccc2c(c1)OCCO2`, with -8.72%.
Take `CCn1cc([N+](=O)[O-])c(C(=O)Nc2c(C)nn(Cc3cccc(F)c3)c2C)n1`: the “hERG current change (%, negative = inhibition) at 10uM” value came out at 19.9%.
As to `CC(=O)OCC(=O)Nc1cc(S(=O)(=O)N2CCCCCC2)ccc1Cl`, the “hERG current change (%, negative = inhibition) at 10uM” value was -2.16%.
For `COCCCNC(=S)N1CCN(C(=O)c2ccco2)CC1`, the “hERG current change (%, negative = inhibition) at 10uM” value turned out to be 5.88%.
Then `Cc1ccc(NC(=O)CCN2CCC(Cc3ccccc3)CC2)cc1`, with -75.1%.
Then `COc1ccc(NC(=O)CN2CCCC(C)C2)c([N+](=O)[O-])c1` (stereo not shown), with -26.5%.
As for `COc1ccc(CN=Cc2c(O)[nH]c3ccccc23)cc1`, the “hERG current change (%, negative = inhibition) at 10uM” value stood at 13%.
Then `O=C1CC(N2CCN(c3nc4ccccc4s3)CC2)C(=O)N1c1ccc(F)cc1` (stereo not shown), with -53.5%.
